From ChEMBL document CHEMBL4888484, “Replenishing the malaria drug discovery pipeline: Screening and hit evaluation of the MMV Hit Generation Library 1 (HGL1) against asexual blood stage Plasmodium falciparum ,using a nano luciferase reporter read-out” (2022)
The campaign covered roughly 150,000 compounds. About 540 (0.36%) showed an effect of 50% or more. The list shows a part of the results.

System: Plasmodium falciparum
Assay: Primary screen in NF54 nanoGlo assay, in single point, at 2uM, 72h; a lower Z score goes with more inhibition
Assay type: functional, Erythrocyte
Conditions: timepoint 72 hour

Row | SMILES | % Inhibition | Z score
1 | CC(C)(C)N1C(=O)NC(=O)C2(Cc3ccccc3N3CCN(Cc4ccccc4)CC32)C1=O (stereo not given) | 30% | -3.35
2 | Cc1ccccc1[C@](CCN1CCCCC1)(C(N)=O)c1c(C)cccc1C | -12% | 1.45
3 | Cc1cc(C(C)NC(C)C(C)c2ccccc2C(F)(F)F)no1 (stereo not given) | -2% | 0.29
4 | O=C(c1ccc(Oc2ccccc2)cc1)[C@H]1CCCNC1 | -14% | 1.99
5 | Cc1nc2nc(CN3CCN4C(=O)OC[C@H]4C3)cc(O)n2n1 | -6% | 1.15
6 | Cc1cn2c(=O)cc(CN3CC[C@H](O)CC34CCC4)nc2s1 | -4% | 0.49
7 | CCc1ccc(NC(=O)CC2CCN(S(=O)(=O)c3ccc4c(c3)oc(=O)n4CC)CC2)cc1 | -8% | 0.73
8 | CC(C)N1CCN(c2oc(C3CC3)nc2C#N)CC1 | -4% | 0.67
9 | COCCOCC(=O)N1C[C@@H]2CC[C@H]1CN(Cc1ccccn1)C2 | 12% | -1.65
10 | CN1CCC2C(CCCN2C(=O)CCCc2ccccn2)C1 (stereo not given) | -8% | 0.94
11 | O=C(COc1ccccc1)N1CCN2CCS(=O)(=O)N(C3CC3)C(=O)[C@@H]2C1 | 10% | -1.94
12 | Cc1ccc(Cl)c(NC(=O)N2CCC[C@H](c3n[nH]c(=O)o3)C2)c1 | 41% | -5.9
13 | CCCCOC(=O)N1C[C@@H]2CC[C@H]1CN(Cc1ccncc1)C2 | -14% | 1.72
14 | CN1C(=O)C(C2c3ccccc3Oc3ccccc32)C(=O)N(C)C1=O | 13% | -2.4
15 | Cc1cc(=O)c(C(=O)NCCN2CCOCC2)c(CCc2ccccc2)n1Cc1ccncc1 | -6% | 1.21
16 | OC1CCC(NC2CCCCCCC2)CC1 (stereo not given) | -10% | 1.91
17 | Cc1cnn(C[C@H](C)NCc2ccco2)c1 | -6% | 0.89
18 | COc1ccc(CCN[C@@H](C)c2nccs2)cc1OC | 5% | -0.66
19 | CCn1nccc1C(=O)N1CC[C@@H]2CN(Cc3ccncc3)[C@@H]2C1 | -15% | 2.08
20 | CS(=O)(=O)N1C[C@@H]2C[C@H](C1)c1ccc(-c3cccc(C(F)(F)F)c3)c(=O)n1C2 | 32% | -3.6
21 | CC(C)(C)c1ncc2c(n1)CC1CCC2N1 (stereo not given) | -9% | 1.28
22 | CCCn1c(=O)oc2cc(NS(=O)(=O)c3ccc(Cl)cc3)ccc21 | -14% | 1.36

Row | SMILES | % Inhibition | Z score
23 | Cc1ccc(S(=O)(=O)CCc2noc(C(=O)N3CCC4(CC3)OCCO4)n2)cc1 | -7% | 1.02
24 | COc1cc2ccccc2cc1C(=O)Nc1ccc(Cl)cc1C(=O)c1ccccc1 | -6% | 0.84
25 | OC1CC2CCCC(C1)N2Cc1ccccc1 (stereo not given) | -7% | 0.98
26 | CC1(C)CCCCC1NC1CC2CCC1O2 (stereo not given) | -10% | 1.63
27 | OCC(CO)N1C[C@H](c2cccc(F)c2F)[C@@H]2[C@H]1C1CCN2CC1 | -8% | 0.85
28 | c1cc(N2CCN3CCC[C@H]3C2)ncc1-c1nc(C2CC2)no1 | -11% | 1.4
29 | Cc1ccc(CN2C[C@H]3CCC[C@@H](C2)N(C)C3)nc1 | -15% | 1.43
30 | Cc1cc(O)nc(CN2C[C@H](C)OC3(CCC3)C2)n1 | -6% | 0.8
31 | O=C(Cc1cccc(F)c1)N1CC(N(Cc2ccncc2)CC2CC2)C1 | -7% | 1.25
32 | Nc1ccnc(N2C[C@H](c3cccc(F)c3F)[C@@H]3[C@H]2C2CCN3CC2)n1 | 9% | -1.07
33 | O[C@](C#CCN1CCOCC1)(c1ccccc1)C1CCCC1 | -4% | 0.55
34 | Cc1noc(C)c1CN[C@@H](C)Cn1cncn1 | -4% | 0.78
35 | CCC1CC(c2nc(-c3ccc4oc(=O)[nH]c4c3)no2)CCO1 (stereo not given) | 3% | -0.4
36 | Cc1cc(C)cc(OCC(=O)N2CCN([C@@H](C)c3nnc(C)s3)CC2)c1 | -4% | 0.78
37 | CCCC(=O)N1C[C@@H](c2cccc(F)c2F)[C@@H]2[C@H]1C1CCN2CC1 | -3% | 0.63
38 | CNC(=NCCc1cn(C)c2cc(C)ccc12)NC | -5% | 0.52
39 | CC(C)c1cccc(OCC#CCN2CCOCC2)c1 | -8% | 0.83
40 | O=C(c1cc(C2CC2)nc2ccccc12)N1CCC2(CC1)OCCO2 | 3% | -0.45
41 | COc1ccc(Cl)cc1C(=O)[C@H]1CCCN(Cc2ccon2)C1 | -9% | 1.19
42 | COc1ccc(NCCS(=O)(=O)F)cc1 | 0% | 0.03
43 | COCCN1CC[C@H](N2CCCN(C(=O)Cc3c[nH]c4ccccc34)CC2)C1=O | -13% | 1.74
44 | COc1ccc2c(c1)OC[C@@]1(C(=O)O)CN(CCC(F)(F)C(F)F)C[C@@H]21 | -20% | 1.95

Row | SMILES | % Inhibition | Z score
45 | CNc1nc(N2CCN(CCc3ccccc3)CC2)nc2c1CCC2 | -9% | 1.39
46 | Cc1c(C(=O)NC(C)(C)c2cccc(Cl)c2)nnn1C1CCNCC1 | -5% | 0.76
47 | O=C(NCC#CCN1CCCCC1)c1cccc(Br)c1 | -9% | 1.71
48 | Cc1ccc([C@H](C)Nc2ncncc2C(=O)O)cn1 | -10% | 1.35
49 | COC(c1ccccc1)C(C)NCC(O)(C1CC1)C1CC1 (stereo not given) | -3% | 0.45
50 | OC[C@]12COCCN1CCN(c1ncnc3[nH]ncc13)C2 | -7% | 1.22
51 | CC(C)(C)c1csc([C@@H]2CNCCO2)n1 | 1% | -0.12
52 | COc1cc(C)nc(CN2CCc3nccc(N)c3C2)c1 | -1% | 0.13
53 | CN(C)S(=O)(=O)N1C[C@H]2CC[C@@H](C1)N(Cc1c(Cl)cncc1Cl)C2 | -11% | 1.15
54 | O=C(c1ncncc1Cl)N1C[C@@H]2CCCN2Cc2ccccc21 | -15% | 2.29
55 | CC(=O)NCCNC(=O)N[C@@H](C)Cc1c(Cl)cccc1Cl | 4% | -0.55
56 | O[C@]1(c2ccc(Cl)cc2)C[N+]2=C(CCCCC2)N1c1ccccc1 | 12% | -2.3
57 | NCCc1ccc(C[C@@H]2COc3ccccc3C2)cc1 | 1% | -0.06
58 | O[C@@H]1COCCN(CCn2ccc3cc(Cl)ccc32)C1 | -1% | 0.12
59 | COCC(C)NC(C)Cc1ccccc1F (stereo not given) | -7% | 1.28
60 | COC(=O)N1C[C@@H](c2cc(F)cc(F)c2)[C@@H]2[C@H]1C1CCN2CC1 | -3% | 0.57
61 | CC(Cn1cncn1)NC(C)c1ccc(Br)cc1F (stereo not given) | -6% | 0.61
62 | CN1C(=O)[C@@H]2CC[C@H]1CN(Cc1cc(C3CCCCC3)no1)C2 | -8% | 1.3
63 | CCn1c(=O)oc2cc(-c3noc(-c4cccc(F)c4)n3)ccc21 | -20% | 1.92
64 | CNS(=O)(=O)CCCN1CCOC2CCCC21 (stereo not given) | -13% | 1.87
65 | O=C(c1ccc2c3c(cccc13)CC2)[C@H]1CCCN(C2CCOCC2)C1 | -8% | 1.2
66 | CCOc1cccc2c1cc(C(=O)NC1CCCCC1)n2Cc1ccccc1Cl | -5% | 0.48

Row | SMILES | % Inhibition | Z score
67 | COc1cccc([C@@H]2CN(C(=O)c3cnc(C)nc3)[C@@H]3C4CCN(CC4)[C@@H]32)c1 | -9% | 1.09
68 | COc1ccc(-c2cccc(C(=O)N[C@H]3CN4CCC3CC4)c2)c(OC)c1 | 15% | -1.88
69 | COCC(=O)N1CCC2(CC1)c1nccn1-c1ccccc1CN2CC(C)C | -13% | 1.67
70 | Cc1noc(C)c1C(C)NC(=O)NC(C)Cc1c(F)cccc1F (stereo not given) | -13% | 1.19
71 | CCCc1nn(CC(=O)Nc2ccccc2CC)c(=O)o1 | -3% | 0.42
72 | CCn1nc(C)c(CN2C[C@@H](c3cccc(O)c3)[C@@H]3[C@H]2C2CCN3CC2)c1C | -8% | 1.07
73 | c1ccc(COc2ccc3c(c2)CNCC3)cc1 | -10% | 1.27
74 | Cc1ccc([C@H]2CN(C(=O)c3sc(C)nc3C)[C@@H]3C4CCN(CC4)[C@H]23)cc1 | -9% | 1.19
75 | CN(C)C(=O)CN1C[C@H]2CC[C@@H](C1)N(C(=O)Cc1ccccc1Cl)C2 | 5% | -1
76 | CCO[C@H]1CN(C(=O)c2cn(C)c3ccccc23)C[C@@H]1O | -10% | 0.92
77 | CO[C@H]1C[C@H]2CC[C@@H](C1)N2Cc1ccc2cc(Cl)ccc2n1 | 3% | -0.51
78 | Cc1ccc(C[C@H](C)N(C)CCS(C)(=O)=O)cc1 | -19% | 1.79
79 | C(#CCN1CCOCC1)COCC#Cc1ccccc1 | 1% | -0.16
80 | C1=CC[C@H]2CN(Cc3cnc(NCc4ccccc4)nc3)C[C@H]2C1 | -6% | 0.81
81 | c1ccc2c(c1)CC(N1C[C@@H](c3ccc4c(c3)OCO4)[C@@H]3[C@H]1C1CCN3CC1)C2 | -6% | 0.66
82 | O=C(Oc1c(Br)cc(Br)c2ccccc12)N1CCCCC1 | -6% | 0.77
83 | COc1nccnc1N1[C@@H]2CC[C@H]1CN(C)CC2 | 7% | -1.2
84 | O=C(CN(CCN1CCOCC1)C(=O)Cc1ccccc1)Nc1nc(-c2ccccc2)cn1-c1ccc(F)cc1 | -18% | 1.7
85 | O=C1NC(=O)C2(Cc3cccc(F)c3N3CCC(c4ccccc4)CC32)C(=O)N1c1ccccc1 (stereo not given) | 38% | -4.32
